Hit rate of the full screen: of about 48,000 compounds, about 450 (0.94%) were called active. Roughly 19% stayed inconclusive and do not appear here. Calls follow the shape of the dose curve; as a rule, active = well fitted inhibition curve with a large enough effect; inconclusive = small, poorly fitted or top-dose-only effect; inactive = no such curve, though single readings can be large or run the other way. The list shows a part of the results.

This test in a line: Primary qHTS for Identification of Small Molecule Inhibitors of Huntingtin Promoter Activity. Also: nearly all actives have a fitted effect of over 50% in size. The note with it: HEK293 HTT promoter firefly luciferase reporter (activity 0% = vehicle and -100% = no light), 24 h; series mostly up to 57.5 µM; activity change, negative = inhibition: at the top concentration. The gist of the method: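 Firefly luciferase signal from promoter-reporter HEK293 cells was scaled between vehicle (0%) and zero RLU (-100%). Compounds were tested at final concentrations of up to 57.5 uM over 24 h at 37 degrees C. PTC124 at 50 uM final served as control inhibitor.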
With `CCc1ccc(Nc2nc(-c3cc4cccc(OC)c4oc3=O)c(CC)s2)cc1`, the “activity change, negative = inhibition” value was inactive: 2.38%. `Cc1ccc(NC(=O)C2CCC(CNS(=O)(=O)c3cccs3)CC2)cc1C` (configuration not stated): the “activity change, negative = inhibition” value is inactive: -26.3%. Regarding `CCOC(=O)C1CCN(C(=O)c2ccc(C)c(NC(=O)c3nsc4ccccc34)c2)CC1`, the “activity change, negative = inhibition” value was inactive: -23.5%. For `CCC(=O)N1c2ccc(S(=O)(=O)CCC(=O)NCc3ccc(OC)cc3)cc2CC1C` (configuration not stated), the “activity change, negative = inhibition” value was inactive: -17.2%. For the molecule `CCc1cccc(C)c1Nc1c(-c2cccs2)nc2ncccn12`, the “activity change, negative = inhibition” value is inactive: -20.1%. In the case of `Cc1cc(C)c(NC(=O)CCN2CCCCC2)c(C)c1`, the “activity change, negative = inhibition” value was inactive: 0.466%. In the case of `O=C(Cn1c(=O)c2ccccc2n(CC(=O)Nc2ccccc2F)c1=O)NCCc1ccccc1`, the “activity change, negative = inhibition” value was inactive: -0.503%. Then `O=C(Nc1ccc(F)c(F)c1)c1ccc(=O)n(Cc2ccc(F)cc2)c1`, with inactive: -25.7%. `COc1ccc(NC(=O)COCc2cc(-c3ccco3)on2)cc1Cl`: the “activity change, negative = inhibition” value is inactive: -12.1%.

Consider `CC(C)c1ccc(S(=O)(=O)NCc2nc3cccnc3n2Cc2ccc(F)cc2)cc1`, for which the “activity change, negative = inhibition” value was inactive: -13%. As for `CC1=C(C(=O)Nc2cc(C)cc(C)c2)C2(CCCCC2)OC1=O`, the “activity change, negative = inhibition” value was inactive: -22%.

For `CCc1ccc(-n2c(=O)c3sc4ccccc4c3n(CC(=O)NC3CCCC3)c2=O)cc1`, the “activity change, negative = inhibition” value was inactive: -5.46%. As for `COc1cc(OC)c(NC(=O)CCc2nc(C3=CCN(Cc4cccc(Cl)c4)CC3)no2)cc1Cl`, the “activity change, negative = inhibition” value is inactive: 18.2%. Take `Cc1nc2nc(CNC(=O)OC(C)(C)C)nn2c(C)c1CCC(=O)NCc1ccccc1Cl`: the “activity change, negative = inhibition” value is inactive: -26.4%. With `Nc1nc(N)c(S(=O)(=O)c2ccccc2)c(Nc2ccccc2)n1`, the “activity change, negative = inhibition” value is inactive: -14.1%. Then `COc1cccc(C2C(=O)N(C3CCCCC3)CC(=O)N2CCc2ccc(OC)c(OC)c2)c1` (configuration not stated), with inactive: -10.8%. Regarding `COc1ccc(-c2cc(C(=O)Oc3ccc(Br)cc3)c3ccccc3n2)cc1`, the “activity change, negative = inhibition” value is inactive: 18.1%.

With `Cc1ccc(NC(=O)c2oc3ccccc3c2NC(=O)C2CCCCC2)cc1`, the “activity change, negative = inhibition” value was inactive: -9.55%. In the case of `Fc1ccc(CNc2nc3c(-c4ccc(F)cc4)nnn3c3ccccc23)cc1`, the “activity change, negative = inhibition” value was inactive: -8.6%.

For `COc1cc(C(=O)NCc2ccc3c(c2)CCN3C(=O)c2ccncc2)cc(OC)c1OC`, the “activity change, negative = inhibition” value was inactive: -8.92%. Take `Cc1ccc(NC(=O)NCCc2c(C)nn(C)c2C)c(Cl)c1`: the “activity change, negative = inhibition” value was inactive: 0%. As to `COc1ccc(-c2noc(CSCC(=O)Nc3ccc(C)cc3Br)n2)cc1OC`, the “activity change, negative = inhibition” value was inactive: -16.2%. For `COc1cccc(/C=C/c2nc(C#N)c(N(C)Cc3ccccc3)o2)c1` the value was inactive: -13%. In the case of `COCCCNC(=O)CN1C(=O)c2c(c3ccccc3n2C)C1c1ccc(OC)cc1` (configuration not stated), the “activity change, negative = inhibition” value was inactive: -20.6%. For `CCCCSc1ncnc2c1sc1nc(N3CCOCC3)c3c(c12)CCCC3`, the “activity change, negative = inhibition” value was inactive: -5.93%. Turning to `CC1=C(C(=O)Nc2ccc(C)cc2)C(c2ccccc2Cl)n2nnnc2N1` (configuration not stated), the “activity change, negative = inhibition” value is inactive: -3.79%. For `CCOc1ccc(CNC(=O)COc2cc(=O)n(C)c3ccccc23)cc1` the value was inactive: 11.3%; for `Cc1cccc2c1-c1sc(C(=O)NCc3ccccc3Cl)cc1CO2`, inactive: -17.9%. Then `CCC(=O)N1CCc2cc(Br)cc(S(=O)(=O)CCC(=O)NCc3ccccc3)c21`, with inactive: -10.7%. Regarding `COc1cccc(NC(=O)c2cc(CN3CCOCC3)on2)c1`, the “activity change, negative = inhibition” value is inactive: 35.9%. Consider `COc1ccccc1CNC(=O)c1c2c(nc3ccccc13)C(=O)N(C1CCCCC1)C2`, for which the “activity change, negative = inhibition” value was inactive: -4.44%. In the case of `CCCCCCCCCCCCCCCC[N+](C)(C)Cc1ccccc1`, the “activity change, negative = inhibition” value is inactive: -20.7%.

As for `CSc1cccc(NC(=O)CN(C)S(=O)(=O)c2ccc3c(c2)n(C)c(=O)c(=O)n3C)c1`, the “activity change, negative = inhibition” value is inactive: -23%. For `Cc1nn2c(=O)cc(COC(=O)c3ccc(C(C)(C)C)cc3)nc2s1` the value was inactive: -13.4%; for `O=c1ccc2cc(S(=O)(=O)N3CCCC3)ccc2[nH]1`, inactive: -16%.

In the case of `O=C(Nc1c(C(=O)N2CCN(c3ccc(F)cc3)CC2)oc2ccccc12)c1ccco1`, the “activity change, negative = inhibition” value is inactive: -21.8%. Consider `CCOC(=O)C1CCCN(CCC(=O)Nc2ccc(OC)cc2OC)C1` (configuration not stated), for which the “activity change, negative = inhibition” value was inactive: 0.392%. For the molecule `COc1cccc(N2CCN(S(=O)(=O)c3ccc(-c4cnc(C5CC5)o4)cc3)CC2)c1`, the “activity change, negative = inhibition” value is inactive: -21.9%. For the molecule `O=C(CSc1nc2ccccc2n1Cc1ccc(F)c(Cl)c1)N1CCN(c2ccc(F)cc2)CC1`, the “activity change, negative = inhibition” value was inactive: -15.4%.

Take `Cc1cccc(-n2ccnc2SCC(=O)Nc2ccccc2C(F)(F)F)c1`: the “activity change, negative = inhibition” value is inactive: -9.37%. For the molecule `CCn1cc(C(=O)NCCc2ccccc2)c(=O)c2cc(S(=O)(=O)N3CCOCC3)ccc21`, the “activity change, negative = inhibition” value is inactive: -14.7%.

For `COc1ccc(CNC(=O)CCc2c(C)nc3c(c2C)c(=O)n(C)c(=O)n3C)cc1`, the “activity change, negative = inhibition” value was inactive: -0.738%.

For the molecule `CCCc1nn2c(=O)cc(COC(=O)c3ccc(NC(=O)c4cccs4)cc3)nc2s1`, the “activity change, negative = inhibition” value is inactive: -23.9%.

In the case of `CCc1ccc(NC(=O)CSC2=Nc3ccccc3C3=NC(CCC(=O)NCc4cccs4)C(=O)N23)cc1` (configuration not stated), the “activity change, negative = inhibition” value was inactive: -1.63%. `Cc1ccc(Cn2c(C)c(CNC3CCCCC3)c(C(=O)O)c2C)cc1`: the “activity change, negative = inhibition” value was inactive: -14.5%. For `CCC(=O)N1CCc2cc(S(=O)(=O)NC(C(=O)NCc3ccc(OC)cc3)C(C)C)ccc21` (configuration not stated), the “activity change, negative = inhibition” value is inactive: -16.3%. Consider `COc1cccc(N2C(=O)CSC23C(=O)N(CC(=O)Nc2cc(C)ccc2C)c2ccccc23)c1` (configuration not stated), for which the “activity change, negative = inhibition” value was inactive: -13.2%. Regarding `COc1ccc(OC)c(CCNC(=O)CCCc2nnc3n(C)c(=O)c4sccc4n23)c1`, the “activity change, negative = inhibition” value is inactive: -4.1%. On to `COC(=O)c1ccc(NC(=O)c2nn(C)c3c2CS(=O)(=O)c2ccccc2-3)cc1`, for which the “activity change, negative = inhibition” value is inactive: 0.897%. As for `CC1CCN(S(=O)(=O)c2ccc3nc(-c4cccnc4)cc(C(=O)NCCCOC(C)C)c3c2)CC1`, the “activity change, negative = inhibition” value is inactive: -3.27%. For the molecule `Cc1ccc(Cl)cc1NC(=O)c1oc2ccc(S(=O)(=O)N3CCC4(CC3)OCCO4)cc2c1C`, the “activity change, negative = inhibition” value was inactive: -7.16%.

Regarding `COc1ccc(C)cc1NC(=O)CN1CCN(CC(=O)Nc2ccccc2F)CC1`, the “activity change, negative = inhibition” value is inactive: -15.6%. For `Cc1ccc2sc(N3CCN(C(=O)C4COc5ccccc5O4)CC3)nc2c1C` (configuration not stated) the value was inactive: -29.5%; for `COc1ccc(NC(=O)Nc2cn(CC(C)C)c(=O)c3ccccc23)c(OC)c1`, inactive: -15.1%. As to `COc1ccc(-c2cc(-c3ccccc3)nc3c2COc2ccc(Cl)cc2-3)cc1`, the “activity change, negative = inhibition” value was inactive: -8.67%.

As to `Cc1oc2ncn(C)c(=O)c2c1C(=O)N(C)c1ccccc1F`, the “activity change, negative = inhibition” value was inactive: 0%. Then `CCN1C(=O)C(O)(c2c(C)[nH]c3ccccc23)c2ccccc21` (configuration not stated), with inactive: -7.47%. For the molecule `COc1ccc(NC(=O)CSC2=Nc3ccccc3C3=NC(CCC(=O)NCCc4ccccc4)C(=O)N23)cc1` (configuration not stated), the “activity change, negative = inhibition” value was inactive: -17.9%. On to `CC(C)(C)OC(=O)N1CCC(c2c(C(=O)N3CCN(C4CCCCC4)CC3)cnn2-c2cccc(Cl)c2)CC1`, for which the “activity change, negative = inhibition” value was inactive: -27.4%. On to `Cn1cc[nH]c1=S`, for which the “activity change, negative = inhibition” value is inactive: 11.5%. Regarding `CCOC(=O)N1CCC(NC(=O)c2cnn(-c3cccc(C)c3)c2-n2cccc2)CC1`, the “activity change, negative = inhibition” value is inactive: -29.7%. For `Cc1ccc(C)c(NC(=O)C(C)N(c2ccccc2)S(C)(=O)=O)c1` (configuration not stated), the “activity change, negative = inhibition” value is inactive: -11.4%.

For the origin of these results see PubChem BioAssay AID1508623 (National Center for Advancing Translational Sciences (NCATS), 2021).
